Assay results from article PMC6919601, “Identification of Plasmodium dipeptidyl aminopeptidase allosteric inhibitors by high throughput screening” (PLoS ONE, 2019).
“And” between values parts separate entries of the source, which are not always exact repeats. Identical values can stand only once. The campaign covered roughly 110,000 compounds. About 230 (0.21%) showed an effect of 50% or more. The list shows a part of the results.

Molecular target: DPAP1 (Plasmodium falciparum, UniProt Q8IIJ9)
Assay: primary screen, percent inhibition; read by cleavage of a fluorogenic dipeptide substrate; higher = more effect of the substance
Design: species or system P. falciparum D10 trophozoite lysates; single well
Protocol: HTS was performed in black 384-well plates. The first and last two columns of each plate contained our negative (DMSO) and positive (10 μM JCP410) controls, and the 20 central columns the test compounds at 10 μM. Compounds were first diluted 50-fold into assay buffer (50 mM sodium acetate, 5 mM MgCl2, 10 mM β-mercaptoethanol, and 0.1% CHAPS, pH 5.5) from a 10 mM DMSO stock plates. One microliter of this 200 μM intermediate stock plate was dispensed into the assay plate. […] After 30 min, the reaction was quenched with 20 μL of 0.5 M acetic acid, and the fluorescent intensity measured at 523 nm (λex = 492 nm) using an Analyst HT multimode plate reader (Molecular Devices).
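Also: 30 min substrate incubation versus DMSO and 10 µM JCP410 controls.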

Chain of DPAP1 (Q8IIJ9 whole entry, looked up): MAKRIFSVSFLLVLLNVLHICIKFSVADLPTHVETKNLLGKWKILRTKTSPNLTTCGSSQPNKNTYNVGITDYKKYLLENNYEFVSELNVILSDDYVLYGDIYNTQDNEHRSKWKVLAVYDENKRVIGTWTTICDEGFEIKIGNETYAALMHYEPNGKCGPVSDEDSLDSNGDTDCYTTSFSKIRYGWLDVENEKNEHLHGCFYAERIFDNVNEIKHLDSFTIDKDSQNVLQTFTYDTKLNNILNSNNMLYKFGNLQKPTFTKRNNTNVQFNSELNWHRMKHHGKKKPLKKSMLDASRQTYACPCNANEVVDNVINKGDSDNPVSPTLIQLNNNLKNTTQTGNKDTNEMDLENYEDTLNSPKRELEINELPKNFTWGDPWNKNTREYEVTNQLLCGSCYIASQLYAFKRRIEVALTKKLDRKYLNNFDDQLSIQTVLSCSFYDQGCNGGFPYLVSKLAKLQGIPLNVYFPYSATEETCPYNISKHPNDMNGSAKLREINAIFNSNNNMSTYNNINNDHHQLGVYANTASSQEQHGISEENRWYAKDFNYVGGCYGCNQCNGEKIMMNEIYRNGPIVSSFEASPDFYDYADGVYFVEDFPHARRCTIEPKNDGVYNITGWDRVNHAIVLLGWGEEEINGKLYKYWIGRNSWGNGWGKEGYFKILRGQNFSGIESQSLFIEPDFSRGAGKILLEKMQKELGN

Row | SMILES | % Inhibition @ 10 uM
1 | C=CCc1cc(/C=C2/C(=N)N3OC(C)=CC3=NC2=O)cc(OC)c1OC | -5.1%
2 | CCCC1C(=O)NC(=S)N(c2ccccc2)C1=O (centres unmarked) | 1.42%
3 | COc1ccc(NC(=O)/C=C/c2ccc(C(C)C)cc2)cc1 | 5.08%
4 | O=C(Nc1nc2ccccc2[nH]1)c1ccc(-c2ccccc2)cc1 | 1.84%
5 | CC(C)OCCCn1c(=O)c2ccccc2n2c(-c3ccccc3O)nnc12 | -3.51%
6 | O=C(Nc1nccs1)C(NS(=O)(=O)c1cccc2nsnc12)c1ccccc1 (centres unmarked) | 0.317%
7 | Cc1nnc(N2CCC(C(=O)NC3CCCC3)CC2)c2nn(-c3ccc(Cl)cc3)c(C)c12 | -4.18%
8 | COC(=O)c1sc2nc(C)ccc2c1N | -2%
9 | CCCOc1ccc(NCC(=O)Nc2ccc(C)cc2C)cc1 | -7.08%
10 | CC1(C)CC(=O)C2=C(C1)c1c(ccc3ccccc13)NC2c1cccnc1 (centres unmarked) | -1.97%
11 | CCN(CC)CCNc1cc(C)nc2c(-c3ccc(Cl)cc3)c(C)nn12 | -6.4%
12 | COc1ccc(-c2c(C(=O)O)oc(=O)c3ccccc23)cc1 | 1.02%
13 | CN(C1CCCCC1)C1CCCCC1NS(=O)(=O)c1ccc(Cl)cc1 (centres unmarked) | 1%
14 | Cc1sc(NC(=O)c2ccc(Cl)cc2Cl)c(C#N)c1C | 0.983%
15 | O=C(c1ccc(F)cc1)N1CCN(Cc2cccc(Oc3ccccc3)c2)CC1 | -5.28%
16 | CC1CN(Cc2ccc(Cl)cc2)CC(C)O1 (centres unmarked) | 0.815%
17 | O=C(O)c1ncc(-c2ccccc2)cn1 | 1.9%
18 | CCOC(=O)N1CCN(C(=O)C2CCN(S(=O)(=O)c3cccc4nsnc34)CC2)CC1 | -3.35%
19 | CC(C)(O)C#Cc1ccc(C(=O)NCCc2ccc(S(N)(=O)=O)cc2)cc1 | 13.3%
20 | O=C(CN1CCCN(Cc2ccc(F)cc2Cl)C1=O)NCc1cccnc1 | -4.53%
21 | CC(=O)Nc1ccc(S(=O)(=O)N2CCN(C(=O)N3CCOCC3)CC2)cc1 | -1.17%
22 | Cc1ccc(CNC(=O)C(NS(=O)(=O)c2ccc3nc(C)sc3c2)C(C)C)cc1 (centres unmarked) | 4.74%
23 | FC(F)Oc1ccc(C2CC(c3ccc(Cl)cc3)Nc3nnnn32)cc1 (centres unmarked) | -5.19%
24 | Cc1ccc(C(C)C)c(OCC(=O)Nc2ccccc2F)c1 | -3.19%
25 | Cc1ccc(-n2cnc(N)c2C(=O)c2ccc(Br)cc2)cc1 | 2.45%
26 | C[C@H](NC(=O)[C@H]1CCCN1C#N)C(=O)NCc1ccccc1 | -0.972%

Row | SMILES | % Inhibition @ 10 uM
27 | CCOc1ccc(OCC)c(C2C(C#N)=C(N)SC(N)=C2C#N)c1 | 23.2%
28 | Cc1ccc(C)c(S(=O)(=O)Nc2ccc3oc(=O)sc3c2)c1 | -4.59%
29 | COc1ccc(N(C(C)=O)C2SC(=O)N(c3ccccc3)C2=O)cc1 (centres unmarked) | -9.66%
30 | CCOC(=O)C1=C(CC)OC(N)=C(C#N)C1c1cccc(OC)c1 (centres unmarked) | -0.771%
31 | Cc1ccc(-c2nc(CS(=O)(=O)CC(=O)NC(C)C34CC5CC(CC(C5)C3)C4)c(C)o2)cc1 (centres unmarked) | -0.138%
32 | CCN(CC)CCCNC(=O)c1ccc(-n2c(C)cc3c2CCC(C)C3)cc1 (centres unmarked) | -0.0871%
33 | COc1ccc(CN2CC(C(=O)NCCCN3CCOCC3)CC2=O)cc1 (centres unmarked) | 1.62%
34 | O=S(=O)(NCc1ccc2c(c1)OCO2)c1ccc(-c2cc(C(F)(F)F)no2)s1 | 2.91%
35 | CCOc1ccc(NC(=O)c2ccc(N(C)S(C)(=O)=O)cc2)cc1 | 5.77%
36 | COc1ccc(C(=O)N2CCN(Cc3ccccc3C)CC2)cc1OC | -13.5%
37 | Cn1c(=O)c2c(nc(CN3CCN(CCO)CC3)n2Cc2c(F)cccc2Cl)n(C)c1=O | -4.14%
38 | CCOc1ccc(S(=O)(=O)N(CC(=O)N2CCCC2)c2ccccc2)cc1 | 0.408%
39 | Cn1c(C=O)c(Cl)c2ccccc21 | 4.24%
40 | Clc1cccc(Cl)c1CN1CCN(Cc2ccccc2)CC1 | -0.446%
41 | O=[N+]([O-])c1cc(C(F)(F)F)ccc1N1CCc2ccccc2C1 | -3.8%
42 | CC(NC(=O)C(C)n1c2ccccc2c2cnnc(O)c21)c1ccccc1 (centres unmarked) | 1.38%
43 | Cc1cccc(NC(=O)c2cccc(N)c2)c1 | 4.44%
44 | O=C(Nc1cc(Cl)ccc1Cl)c1ccc(Br)cc1 | -3.71%
45 | CCOc1ccccc1N1CCN(S(=O)(=O)c2ccc(OC)cc2)CC1 | -5.69%
46 | COc1ccccc1/C=C/C(=O)c1c(C)cc(C)nc1O | 0.317%
47 | COc1ccc2c(=O)c(Oc3ccc(Cl)cc3)coc2c1 | 0.161%
48 | O=C(NCc1ccccc1)c1ccc2nc(N3CCN(Cc4ccc(Cl)cc4)CC3)ccc2n1 | -2.52%
49 | O=C(NCCCc1nc2ccccc2n1Cc1ccccc1)c1ccccc1 | -4.07%
50 | CC(C)(C)C1CCC(OC(=O)CCC(=O)Nc2ncncn2)CC1 (centres unmarked) | -3.58%
51 | COc1cc(NC(=O)c2ccccc2)c(Cl)cc1NC(C)=O | -4.31%
52 | COc1cc(CCC(=O)Nc2nccs2)on1 | 9.89%

Row | SMILES | % Inhibition @ 10 uM
53 | CCN(CCN(C)C)C1CCN(CCc2ccccc2)CC1 | 1.57%
54 | CCn1c2ccccc2c2cc(CN3CCCCCCC3)ccc21 | -0.828%
55 | CCOC(=O)c1cnc2ccc(C)cc2c1NCCN1CCOCC1 | -3.06%
56 | CCOc1ccccc1NC(=O)CC(C)C | 0.583%
57 | Cc1nc2ccn(Cc3cccs3)c(=O)c2cc1C(=O)N1CCCC1 | -10.2%
58 | CCC1CCCCN1CCCNC(=O)Cn1ncc2c3ccccc3n(Cc3ccccc3)c2c1=O (centres unmarked) | -1.58%
59 | CCOc1ccc(C2C3=C(O)CCCC3=Nc3nc(-c4ccc(OC)cc4)nn32)cc1OC (centres unmarked) | -1.47%
60 | Cc1ccc(-c2csc(/C(C#N)=C\c3cccc(Cl)c3)n2)cc1 | 5.29%
61 | CN(C)c1ccc(Nc2cccc3nonc23)cc1 | 5.87%
62 | CSC1=NC(C)(C)CCC12C=CC(=O)C=C2 | 1.74%
63 | CC(C)CNC(=O)COCc1cc(-c2ccc3c(c2)OCO3)on1 | 1.6%
64 | Cc1cc(Oc2ccc(C#N)cc2)nc(-c2ccccc2O)n1 | -1.97%
65 | Nc1ncc(Br)cc1S(=O)(=O)NCCC(=O)N1CCN(c2ncccn2)CC1 | 1.93%
66 | CCCN1CCC(NC2CCCC2)CC1 | -1.81%
67 | CC1NC(=O)N(C)C2C1C(c1ccccc1)NC(=O)N2C (centres unmarked) | 3.69%
68 | CCOc1ccc(C(=O)CCN(C)C)cc1 | -1.25%
69 | Nc1nonc1-c1nc2ccccc2n1CC(=O)Nc1ccccc1C(F)(F)F | 31.1%
70 | O=C(CN(c1cc(C(F)(F)F)ccc1Cl)S(=O)(=O)c1ccccc1)NCc1cccnc1 | 1.62%
71 | Cc1nn(Cc2ccccc2)c2ncccc12 | -5.5%
72 | Cc1ccc(C)c(NCc2ccccn2)c1 | -2.35%
73 | C=C(C)Cn1c(SCC(=O)Nc2nccs2)nc2sc3c(c2c1=O)CCC3 | -0.994%
74 | CC(C)(C)c1ccc(S(=O)(=O)N2CCC(C(N)=O)(N3CCCCC3)CC2)cc1 | -4.19%
75 | CC1=C(C)CC2C(=O)N(c3ccccc3Cl)C(=O)C2C1 (centres unmarked) | 1.96%
76 | O=C1CCCN1CCC/N=C/c1c(-c2ccccc2)nn(-c2nc3ccccc3s2)c1O | -5.26%
77 | O=C1CNCC(=O)N1CCc1ccccc1 | -0.216%
78 | c1ccc2c(c1)CCN(Cc1nnc(-c3ccc4c(c3)OCO4)o1)C2 | -3.34%

Row | SMILES | % Inhibition @ 10 uM
79 | O=c1oc2ccccc2cc1-c1cn(-c2ccccc2F)c(S)n1 | 16.4%
80 | Cc1ccccc1OCC(=O)Nc1nn2c(C)nnc2s1 | 0.522%
81 | CC1CCCC(C)N1C(=O)c1ccc(Cl)cc1 (centres unmarked) | -3.82%
82 | CC1CCN(S(=O)(=O)c2ccc(NC(=O)Nc3ccccc3)cc2)CC1 | 13.9%
83 | Fc1ccc(OCCCn2ccnc2)cc1 | -0.833%
84 | COc1cc(C2C3=C(CC(C)(C)CC3=O)OC3=C2C(=O)CC(C)(C)C3)cc2sc(=O)oc12 | -4.01%
85 | COCCNc1nc2c(=O)[nH]c(=O)n(C)c2[nH]1 | -3.28%
86 | O=C(O)c1ccc2c(c1)C(=O)NC2=O | 3.47%
87 | CN(C)C(=O)c1nnc(Cc2ccc(Cl)cc2)o1 | 0.738%
88 | CCCOc1ccc(-c2nc3c(=O)n(C)c(=O)n(C)c3[nH]2)cc1 | 3.69%
89 | COc1ccc(CN2CCN(C(=O)C(C)n3sc4ccccc4c3=O)CC2)c(OC)c1OC (centres unmarked) | 0.544%
90 | Oc1ccc(CCc2ncccc2O)cc1 | -2.18% and -9.55%
91 | CCSc1nc2c(c(=O)n1C1CCCCC1)C1(CCCCC1)Cc1ccccc1-2 | 1.4%
92 | CCCCN(CCCC)CC1OCc2ccccc2CO1 | -3.45%
93 | COC(=O)c1cc(-c2cccc(OC)c2)c2c(=O)n(C)c(=O)n(C)c2n1 | 2.73%
94 | Nc1ccc(O)c(-c2nc3cc(N)ccc3s2)c1 | -2.42%
95 | O=C(Cn1cc(C(=O)c2ccco2)c2ccccc21)NCc1ccccc1 | -3.13%
96 | CCCc1nnc(NC(=O)c2cc(=O)c3cc(C)ccc3o2)s1 | 1.9%
97 | CC(Cc1ccccc1)NC(=O)CC(c1ccccc1)c1ccccc1 (centres unmarked) | -1.56%
98 | COc1cccc(/C=C2/NC(=O)N(c3ccccc3)C2=O)c1OCC(=O)Nc1ccccc1 | 1.57%
99 | CC(=O)NC(Cc1ccccc1)P(=O)(O)O (centres unmarked) | -1.05%
100 | COc1ccc(CNC(=O)COc2ccc3c(c2)C(=O)CC2(CCCCC2)O3)cc1 | 3.89%
101 | CC1CCC(C(C)C)C(OP(=O)(c2ccccc2)C(O)c2ccncc2)C1 (centres unmarked) | -5.41%
102 | CC(C)CN1CC(C(=O)O)CC1=O (centres unmarked) | 1.51%
103 | CCOC(=O)c1c(C)n(Cc2ccc(F)cc2)c2ccc(O)cc12 | 0.413%
104 | COc1cc(/C=C2\C(=N)N3N=C(N4CCCC4)SC3=NC2=O)cc(OC)c1OC | 6.38%
